Results on 6 molecules are retold here after patent US7105166 (Bristol-Myers Squibb, dated 2006).

Experiment [1] has as its target T1, B7 antigen (B7-1, CD80) expressed on cells (human, UniProt P33681 35-288).
T1 construct: whole, on cells; Stably transfected CHO cells; in the MLR and IgM assays the B7 antigen of the stimulating B cells; also called B7^+ CHO cells; B7-1 positive CHO cells
T1 sequence (looked up): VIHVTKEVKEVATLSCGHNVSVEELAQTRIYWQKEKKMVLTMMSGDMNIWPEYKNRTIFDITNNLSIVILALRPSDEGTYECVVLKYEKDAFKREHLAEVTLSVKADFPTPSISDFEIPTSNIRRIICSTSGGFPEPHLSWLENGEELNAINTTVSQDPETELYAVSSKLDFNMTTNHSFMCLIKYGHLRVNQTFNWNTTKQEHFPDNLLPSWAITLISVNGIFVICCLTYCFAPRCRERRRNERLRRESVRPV
The experiment is described as follows: FACS titration on CD80 CHO cells, fluorescein goat anti-human IgG, mean fluorescence intensity.

For experiment [2], the target named is T2, human CD86 expressed on stably transfected CHO cells (human, UniProt P42081 24-329).
T2 construct: whole, on cells; also called CD86+ CHO cells; human CD86 CHO-transfected cells
T2 sequence (looked up): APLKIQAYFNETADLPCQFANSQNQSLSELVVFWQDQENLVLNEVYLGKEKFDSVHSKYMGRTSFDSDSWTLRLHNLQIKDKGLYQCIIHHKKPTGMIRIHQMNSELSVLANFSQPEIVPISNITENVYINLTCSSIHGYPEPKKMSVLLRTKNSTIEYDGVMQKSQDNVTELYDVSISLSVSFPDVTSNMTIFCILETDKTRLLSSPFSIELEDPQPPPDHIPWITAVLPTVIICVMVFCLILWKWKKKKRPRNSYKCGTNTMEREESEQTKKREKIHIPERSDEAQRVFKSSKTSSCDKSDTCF
The experiment is described as follows: FACS titration on human CD86 CHO cells, FITC goat anti-human immunoglobulin, mean fluorescence intensity.

Experiment [3] deals with T1, B7 antigen (B7-1, CD80) expressed on …. Nature of the experiment: FACS titration on human CD80 CHO cells, FITC goat anti-human immunoglobulin, mean fluorescence intensity.
Experiment [4] has as its target T2, human CD86 expressed on stably …. The experiment is described as follows: FACS titration on CD86 CHO cells, fluorescein goat anti-human IgG, mean fluorescence intensity.
Experiment [5] concerns the target T1, B7 antigen (B7-1, CD80) expressed on …. Nature of the experiment: enzyme immunoassay on ethanol-fixed B7-1+ CHO cells, HRP goat anti-human IgG, A450.
The target of experiment [6] is T3, CD28 expressed on transfected cells (human, UniProt P10747 19-220).
T3 construct: In COS cells expressed from OMCD28, in which the native signal peptide is replaced by that of oncostatin M; also called CD28-transfected COS cells; CD28^+ CHO cells
The experiment is described as follows: indirect immunofluorescence, FACS, FITC goat anti-human Ig second step.

Experiment [7] concerns the target T1, B7 antigen (B7-1, CD80) expressed on …. Nature of the experiment: enzyme immunoassay on ethanol-fixed B7-1+ CHO cells, HRP goat anti-human IgG, A450. This is another data set of the same source.
The target in experiment [8] is T2, human CD86 expressed on stably …. Nature of the experiment: cell-based or functional assay.
The target of experiment [9] is T4, CD5Ig (human, UniProt P06127 25-371; P01857 partial chain = IgG part).
T4 construct: range 1-347;domain: hinge, CH2 and CH3 regions; Control fusion protein; also called control CD5Ig fusion protein
The experiment is described as follows: indirect immunofluorescence, FACS, transfected COS cells, FITC anti-mouse and anti-human Ig second step.

T3 sequence (P10747 other isoform, or with tags, fused parts or gaps limits assumed): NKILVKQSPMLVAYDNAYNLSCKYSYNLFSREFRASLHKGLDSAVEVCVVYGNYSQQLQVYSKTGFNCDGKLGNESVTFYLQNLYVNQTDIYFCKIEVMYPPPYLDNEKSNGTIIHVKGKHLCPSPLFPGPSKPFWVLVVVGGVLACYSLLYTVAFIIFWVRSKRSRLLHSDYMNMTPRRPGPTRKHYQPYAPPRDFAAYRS

B1: L104EIg (Fc fusion)
chain: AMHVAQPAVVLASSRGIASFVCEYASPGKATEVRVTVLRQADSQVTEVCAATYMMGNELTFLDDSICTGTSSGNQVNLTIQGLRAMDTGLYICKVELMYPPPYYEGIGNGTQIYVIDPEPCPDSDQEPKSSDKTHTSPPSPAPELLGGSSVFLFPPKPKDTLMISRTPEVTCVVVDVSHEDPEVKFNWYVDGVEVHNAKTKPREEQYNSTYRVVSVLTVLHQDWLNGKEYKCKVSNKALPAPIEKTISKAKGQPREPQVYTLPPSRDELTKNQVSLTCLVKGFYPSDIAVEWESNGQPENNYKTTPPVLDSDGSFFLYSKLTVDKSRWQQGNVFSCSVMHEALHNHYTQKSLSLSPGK
notes: The entry may carry the signal peptide
As usually defined, the EC50 (read off the curve) is the concentration at which the effect is half-maximal. Regarding B1, the “EC50 (read off the curve)” value in experiment [1] was roughly 0.06 µg/mL; in [2], roughly 0.06 µg/mL; in experiment [3], roughly 0.05 µg/mL.

B2: L104EG105FIg (Fc fusion)
chain: AMHVAQPAVVLASSRGIASFVCEYASPGKATEVRVTVLRQADSQVTEVCAATYMMGNELTFLDDSICTGTSSGNQVNLTIQGLRAMDTGLYICKVELMYPPPYYEFIGNGTQIYVIDPEPCPDSDQ[sequence of human IgG1 Fc with changes omitted]
On to B2, for which, in experiment [1], the “EC50 (read off the curve)” value was roughly 0.1 µg/mL.

B3: L104ES25RIg (Fc fusion)
chain: AMHVAQPAVVLASSRGIASFVCEYARPGKATEVRVTVLRQADSQVTEVCAATYMMGNELTFLDDSICTGTSSGNQVNLTIQGLRAMDTGLYICKVELMYPPPYYEGIGNGTQIYVIDPEPCPDSDQ[sequence of human IgG1 Fc with changes omitted]
Regarding B3, the binding result in [4] is given as “binds”.

B4: CTLA4Ig (Fc fusion)
chain: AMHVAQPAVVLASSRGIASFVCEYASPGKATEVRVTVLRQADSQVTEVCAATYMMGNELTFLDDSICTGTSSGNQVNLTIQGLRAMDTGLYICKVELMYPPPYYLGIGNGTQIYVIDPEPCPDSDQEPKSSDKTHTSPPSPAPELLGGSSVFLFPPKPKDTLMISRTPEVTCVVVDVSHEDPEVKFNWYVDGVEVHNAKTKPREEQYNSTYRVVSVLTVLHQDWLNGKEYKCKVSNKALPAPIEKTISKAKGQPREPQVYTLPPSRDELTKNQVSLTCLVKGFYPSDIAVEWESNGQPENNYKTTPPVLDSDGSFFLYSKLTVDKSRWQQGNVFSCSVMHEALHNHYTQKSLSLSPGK
notes: also called wild type CTLA4Ig; human CTLA4Ig fusion protein
In the case of B4, the “EC50 (read off the curve)” value in [5] was roughly 0.01 µg/mL; in [1], roughly 0.05 µg/mL; in experiment [7] it was roughly 0.03 µg/mL; in [3] it was roughly 0.05 µg/mL. Besides, the binding result in experiment [6] is listed as “no binding (tested: 10 µg/ml (from the text))”; in experiment [2], “binds”.

B5: L104EA29YIg (Fc fusion)
chain: AMHVAQPAVVLASSRGIASFVCEYASPGKYTEVRVTVLRQADSQVTEVCAATYMMGNELTFLDDSICTGTSSGNQVNLTIQGLRAMDTGLYICKVELMYPPPYYEGIGNGTQIYVIDPEPCPDSDQ[sequence of human IgG1 Fc with changes omitted]
notes: The entry may carry the signal peptide; also called L104E29YIg
In the case of B5, the “inhibition of proliferation of CD86+PMA treated human T cells” value in experiment [8] is roughly 10 fold. Also, the “EC50 (read off the curve)” value in experiment [2] is roughly 0.06 µg/mL; in experiment [3], roughly 0.05 µg/mL.

B6: CTLA4 receptor expressed on transfected COS cells (receptor)
chain: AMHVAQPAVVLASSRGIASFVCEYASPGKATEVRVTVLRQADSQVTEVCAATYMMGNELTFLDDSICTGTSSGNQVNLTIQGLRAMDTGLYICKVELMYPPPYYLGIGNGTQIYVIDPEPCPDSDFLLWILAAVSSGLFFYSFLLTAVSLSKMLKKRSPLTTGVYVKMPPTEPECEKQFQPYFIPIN
notes: The entry includes the oncostatin M signal peptide; also called OMCTLA4; CTLA4-transfected COS cells
With B6, the binding result in experiment [9] is “no binding (tested: 10 µg/ml (from the text))”.
